Out of some 91,000 compounds screened, about 130 (0.14%) were called active. The shares of active, inactive and inconclusive entries below differ from those in the screen. Calls come from the whole dose curve; as a rule, active = well fitted inhibition curve with a large enough effect; inconclusive = small, poorly fitted or top-dose-only effect; inactive = flat fitted curve, though single readings scatter. A potency beside an inconclusive call is a rough fit, not a confirmed value.
system: Uracil-DNA glycosylase; assay: Primary qHTS assay for inhibitors of Activation Induced Cytidine Deaminase (AID): UDG Counterscreen signal; conditions: FRET deamination/UDG coupled assay, UDG read, 4 h; activity change, negative = inhibition: at 115 µM (top of the series); note: nearly all actives have a fitted effect of over 65% in size
From the text: Assay Provider (PI) Patricia Gearhart Ph.D.
National Institute on Aging
National Institute of Health (NIH), Bethesda, MD
Assay Provider (PI) Rahul Kohli Ph.D.
Perelman School of Medicine
University of Pennsylvania, Philadelphia, PA
Activation-Induced Deaminase (AID) is a cytosine deaminase which converts cytosine into uracil within stretches of ssDNA. The presence of uracil in DNA initiates a cascade of mutagenic DNA repair to introduce point mutations and DNA double strand breaks. Specific targeting of AID to the immunoglobulin heavy chain loci (Igh) promotes mutagenesis in the antibody variable region for somatic hypermutation (SHM) or switch regions leading to class switch recombination (CSR). However, AID also plays a role in accumulating unnecessary mutations across the genome. Mis-targeting of AID results in the initiation of tumor development and leads to greater drug resistance among cancer cells when continually expressed. To identify an AID inhibitor, a small molecule library will be screened in collaboration with NCATS core facility at NIH. To confirm biological function, inhibitors will be examined in an in vitro murine B-cell activation assay and subsequent secondary validation screens. Top molecules will be further screened to identify inhibitory efficacy against a wild type primary splenocytes assay. Using these approaches, we hope to identify a small molecule with great efficacy and low toxicity for use as a molecular probe to further characterize AID's intricacies, or even as a therapeutic.
A FRET based analysis of cytosine deamination, was developed to identify potential inhibitors of AID catalytic activity. This screen has two signal output, Read 1 evaluates the AID inhibition response. The second readout (Read 2) evaluates UDG response and is uses as a counterscreen to exclude false positive inhibitors. Inhibition in AID and inactivity in the UDG signal is the desired outcome for this assay.
SEQUENCE No. (e.g., 1, 2, 3, etc.); […] (e.g., Cells, Incubation, Reagent, etc.); VALUE; DESCRIPTION
1a; Reagent; 3 uL; [4/3x] 1 uM AID/2.67 U/mL UDG
1b; Reagent; 3 uL; 2 U/mL UDG
1c; Reagent; 3 uL; 1 uM AID
2a; Compound; 46 nL; Follow-up plates (0.64 uM - 10 mM)
2b; Control; 46 nL; ATA ([…] - 10 mM)
3; Time; 10 min; incubation at room temperature
5; Time; 4 hr; incubation at room temperature
6; Reagent; 4 uL; [2x] 250 mM NaOH
7; Time; 15 sec; centrifuge at 1000 rpm
8; Time; 30 min; incubation at room temperature
9a; Detection; fluorescence (Read 1: AID); EnVision (PerkinElmer) plate reader, 540 excitation and 590 emission filters
9b; Detection; fluorescence (Read 2: UDG); EnVision (PerkinElmer) plate reader, 560 excitation and 665 emission filters
NOTES (numbers refer to sequence above)
1a; Reagents were dispensed in a medium-binding black solid-bottom Greiner plates (789176F) using a BioRptr liquid dispenser. Dispense 3 uL of [4/3x] 1 uM AID (provided by Kohli lab) and [4/3x] 2 U/mL UDG (NEB M0280L) into columns 1, 2, 5 to 48.
1b; Dispense 3 uL of [4/3x] 2 U/mL UDG into column 3.
1c; Dispense 3 uL of [4/3x] 1 uM AID into column 4.
2a; Compound (7-points [uM] (0.64; 3.2; 16; 80; 400; 2,000; 10,000; 20,000) double pin-transferred (Dip Factor = 2) using the Kalypsys (Wako USA) pintool equipped with a 1536 pinhead for a final concentration range of 7.32 nM - 114 uM.
2b; 10 mM Aurintricarboxylic Acid (Sigma A1895) (ATA, 8-point, n = 2, 1:2.5 dilution in column 2) double pin-transferred (Dip Factor = 2) using the Kalypsys (Wako USA) pintool equipped with a 1536 pinhead for a [final] range of 186 nM - 114 uM.
3; Room temperature incubation.
4; Dispense 1 uL of substrate mixture from the Kohli lab [4x] […] DJC20 and [4x] 250 nM DJC23 into columns 1 to 48 .
5; Room temperature incubation.
6; Dispense 4 uL of substrate mixture [2x] 250 mM NaOH into columns 1 to 48.
7; Centrifugation step to remove bubbles.
8; Room temperature incubation
9a; Fluorescence signal (column label AID) was read using the EnVision plate reader. […]
% is set by controls: 0 for no effect and ±100 for the full control effect; potency is the fitted concentration of half-maximal effect; tags give direction and shape of the fitted curve.

Row | Compound | activity change, negative = inhibition | Potency
1 | CCn1cc(C(=O)NCCc2ccc(OC)c(OC)c2)c(=O)c2cc(S(=O)(=O)N(C)C3CCCCC3)ccc21 | inactive: -22.8% | –
2 | CCC(=O)Nc1ccc(Cl)c(NC(=O)c2ccc3c(c2)OCCO3)c1 | – | inconclusive: 89.1 µM [inhibitor, single point]
3 | Fc1ccc(-n2ncc3c(Nc4ccc5c(c4)OCCO5)ncnc32)cc1 | – | inconclusive: 89.1 µM [inhibitor, partial curve, poor fit]
4 | CCOC(=O)c1c(NC=C(C#N)C#N)sc(C)c1CC | inactive: 1.28% | –
5 | COc1ccc(-c2noc(CSc3nnc(C)n3-c3cccc(C)c3)n2)cc1 | – | inconclusive: 79.4 µM [inhibitor, partial curve, poor fit]
6 | Cc1ccc2c(c1)N(C(=O)Nc1cccc3c1CCCC3)CCO2 | – | inconclusive: 79.4 µM [inhibitor, partial curve, poor fit]
7 | O=C(Cn1ncc2c1-c1ccccc1OC2)N1CCN(c2ccccc2)CC1 | – | inconclusive: 89.1 µM [inhibitor, single point]
8 | N#CC(C(=O)/C=C/c1ccccc1)C(=O)NC1CCCCC1 (centres undefined) | inactive: -2.92% | –
9 | O=C(C1=COCCO1)N1CCN(c2ccccc2)CC1 | inactive: -24.2% | –
10 | CCOc1ccc(-c2nnc(SCC(=O)NCc3ccccc3Cl)o2)cc1 | – | inconclusive: 100 µM [inhibitor, single point]
11 | N#Cc1c(N)n[nH]c1CCCNC(=O)c1ccccc1-c1ncc(-c2ccccc2)o1 | inactive: -5.41% | –
12 | Cc1cc(C)c(S(=O)(=O)NCC(c2ccco2)N2CCOCC2)c(C)c1 (centres undefined) | – | inconclusive: 100 µM [inhibitor, single point]
13 | O=C(Cn1nnc(-c2cccc(C(F)(F)F)c2)n1)N1CCCC1c1ccc2c(c1)OCCO2 (centres undefined) | inactive: -7.98% | –
14 | CCc1ccc2oc(=O)cc(CN3CCN(CC(=O)N4CCCCC4)CC3)c2c1 | inactive: -3.04% | –
15 | Cc1cc(C)n(CCc2nc3c4ccccc4nc(N4CCN(c5cccc(C)c5C)CC4)n3n2)n1 | – | inconclusive: 89.1 µM [inhibitor, partial curve, poor fit]
16 | CCOC(=O)c1cccc(NC(=O)CCS(=O)(=O)c2ccc3c(c2)CC(=O)N3C)c1 | – | inconclusive: 100 µM [inhibitor, single point]
17 | Cc1c(C(=O)N2CCOCC2)oc2c1-c1nn(CC(=O)NCc3cccc(F)c3)cc1CC2 | – | inconclusive: 25.1 µM [inhibitor, full curve]

Row | Compound | activity change, negative = inhibition | Potency
18 | CC(=O)c1ccc2[nH]c(C(=O)O)cc2c1 | inactive: -0.705% | –
19 | CCc1ccccc1N(CC)C(=O)c1c(C)oc2ncn(C)c(=O)c12 | – | inconclusive: 89.1 µM [inhibitor, single point]
20 | Cc1nc2ccc(C(=O)NCC(=O)NCC(F)(F)F)cc2nc1C | inactive: -2.66% | –
21 | COc1ccccc1C(=O)Nc1ccc2nc(SCCOc3ccccc3C)sc2c1 | – | inconclusive: 89.1 µM [inhibitor, partial curve, poor fit]
22 | O=C(Cn1c(=O)oc2cc(S(=O)(=O)NCc3ccccc3)ccc21)Nc1cccc(F)c1 | – | inconclusive: 100 µM [inhibitor, single point]
23 | COc1ccc(C(=O)/C=C/c2cn(CC(O)CN3CCc4ccccc43)c3ccccc23)cc1OC (centres undefined) | – | inconclusive: 89.1 µM [inhibitor, partial curve, poor fit]
24 | Cc1ccc(-c2nc(S(=O)(=O)c3ccc(C)cc3)c(N3CCCCC3)o2)cc1 | – | inconclusive: 89.1 µM [inhibitor, partial curve, poor fit]
25 | COCCNC(=O)Cn1cc2c(n1)-c1c(oc(C(=O)N3CCCC3)c1C)CC2 | – | inconclusive: 22.4 µM [inhibitor, full curve]
26 | Cc1ccc(S(=O)(=O)C(CNC(=O)COc2ccc(Cl)cc2)c2ccco2)cc1 (centres undefined) | – | inconclusive: 89.1 µM [inhibitor, single point]
27 | Cc1cc(C)c(CC(=O)O)c(C)c1 | inactive: 7.23% | –
28 | Cc1cccn2c(=O)cc(COc3ccc(NC(=O)C(C)Oc4ccccc4)cc3)nc12 (centres undefined) | – | inconclusive: 70.8 µM [inhibitor, single point]
29 | Cc1ccc(Cl)cc1-n1ncc2c(NCCC3=CCCCC3)ncnc21 | – | inconclusive: 100 µM [inhibitor, partial curve, poor fit]
30 | CCC(C(=O)N(C)Cc1ccccc1)n1nc(C)c2sc3ccccc3c2c1=O (centres undefined) | – | inconclusive: 89.1 µM [inhibitor, single point]
31 | COc1ccc(C(=O)c2c(N)c(-c3nc(-c4ccccc4)cs3)c3ccccn23)cc1 | – | inconclusive: 22.4 µM [inhibitor, partial curve, poor fit]
32 | Fc1cccc(Cl)c1C1NC(=S)NC2=C1CCc1ccccc12 (centres undefined) | inactive: -9.12% | –
33 | CCN1CCN(c2ncnc3c2cnn3-c2ccc(F)cc2)CC1 | – | inconclusive: 89.1 µM [inhibitor, single point]
34 | COCCNC(=O)NC(=O)Cn1nc(C(=O)O)c2ccccc2c1=O | inactive: 0.792% | –
